Measurements taken from the supplement of paper PMC4967469.

Legend:
Test in all cases: Viability of human cancer cell lines after 72 h of drug (GDSC screen)
ABT-888 = compound: C[C@]1(c2nc3c(C(N)=O)cccc3[nH]2)CCCN1 [ABT-888]; settings: top dose 5 µM; top dose inferred
Description: (§1)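 Human cancer cell lines in 384-well plates, medium with 10% serum, drug for 72 h over a 256-fold dose range (nine 2-fold or five 4-fold steps up to the top dose). Adherent lines were fixed and stained with the nucleic acid dye Syto60, suspension lines read with resazurin; signal relative to control wells, capped at 0 and 100%. One two-parameter sigmoid per drug and line, fitted in a mixed model over all curves with the slope shared within a line.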

CHIR-99021 = compound: Cc1cnc(-c2cnc(NCCNc3ccc(C#N)cn3)nc2-c2ccc(Cl)cc2Cl)[nH]1 [CHIR-99021]
Description: as §1

(5Z)-7-Oxozeaenol = compound: COc1cc(O)c2c(c1)/C=C/C[C@H](O)[C@H](O)C(=O)/C=C\C[C@H](C)OC2=O [(5Z)-7-Oxozeaenol]; settings: top dose 10 µM; top dose inferred
Description: as §1

QL-X-138 = compound: C=CC(=O)Nc1cc(-n2c(=O)ccc3cnc4ccc(-c5cn[nH]c5)cc4c32)ccc1C [QL-X-138]; settings: top dose 10.24 µM; top dose inferred
Description: as §1

Thapsigargin = compound: C/C=C(/C)C(=O)O[C@H]1C(C)=C2[C@H]([C@@H]1OC(=O)CCCCCCC)[C@@](C)(OC(C)=O)C[C@H](OC(=O)CCC)[C@@]1(O)[C@H]2OC(=O)[C@@]1(C)O [Thapsigargin]; settings: top dose 0.512 µM; top dose inferred
Description: as §1

CMK = compound: Cc1ccc(-c2c(C(=O)CCl)n(CCCO)c3ncnc(N)c23)cc1 [CMK]; settings: top dose 4 µM; top dose inferred
Description: as §1

ABT-869 = compound: Cc1ccc(F)c(NC(=O)Nc2ccc(-c3cccc4[nH]nc(N)c34)cc2)c1 [ABT-869]; settings: top dose 1.024 µM; top dose inferred
Description: as §1

Cytarabine = compound: Nc1ccn([C@@H]2O[C@H](CO)[C@@H](O)[C@@H]2O)c(=O)n1 [Cytarabine]; settings: top dose 2 µM
Description: as §1

Zibotentan = compound: COc1nc(C)cnc1NS(=O)(=O)c1cccnc1-c1ccc(-c2nnco2)cc1 [Zibotentan]; settings: top dose 20 µM; top dose inferred
Description: as §1

CP466722 = compound: COc1cc2ncnc(-n3nc(-c4ccccn4)nc3N)c2cc1OC [CP466722]; settings: top dose 16 µM; top dose inferred
Description: as §1

GSK269962A = compound: CCn1c(-c2nonc2N)nc2cnc(Oc3cccc(NC(=O)c4ccc(OCCN5CCOCC5)cc4)c3)cc21 [GSK269962A]; settings: top dose inferred
Description: as §1

KU-55933 = compound: O=c1cc(-c2cccc3c2Sc2ccccc2S3)oc(N2CCOCC2)c1 [KU-55933]; settings: top dose 10 µM
Description: as §1

MPS-1-IN-1 = compound: COc1cc(N2CCC(O)CC2)ccc1Nc1cc(Nc2ccccc2S(=O)(=O)C(C)C)c2cc[nH]c2n1 [MPS-1-IN-1]; settings: top dose 20 µM; top dose inferred
Description: as §1

[1] = top dose 2.56 µM, screen: GDSC drug entry 154
[2] = top dose 10 µM, screen: GDSC drug entry 1241, top dose inferred
[3] = top dose 2.5 µM, screen: GDSC drug entry 127
[4] = top dose 5 µM, screen: GDSC drug entry 1192

Cell Line	AUC (ABT-888)	IC50 (ABT-888) [µM]	AUC (CHIR-99021; [1])	IC50 (CHIR-99021; [1]) [µM]	AUC (CHIR-99021; [2])	IC50 (CHIR-99021; [2]) [µM]	AUC ((5Z)-7-Oxozeaenol)	IC50 ((5Z)-7-Oxozeaenol) [µM]	AUC (QL-X-138)	IC50 (QL-X-138) [µM]	AUC (Thapsigargin)	IC50 (Thapsigargin) [µM]	AUC (CMK)	IC50 (CMK) [µM]	AUC (ABT-869)	IC50 (ABT-869) [µM]	AUC (Cytarabine)	IC50 (Cytarabine) [µM]	AUC (Zibotentan)	IC50 (Zibotentan) [µM]	AUC (CP466722)	IC50 (CP466722) [µM]	AUC (GSK269962A; [3])	IC50 (GSK269962A; [3]) [µM]	AUC (GSK269962A; [4])	IC50 (GSK269962A; [4]) [µM]	AUC (KU-55933)	IC50 (KU-55933) [µM]	AUC (MPS-1-IN-1)	IC50 (MPS-1-IN-1) [µM]
LU-165 (small cell lung carcinoma, suspension)	0.985	> 5	0.986	> 2.56	0.987	> 10	0.977	> 10	0.759	3.99	0.841	0.422	0.982	> 4	0.988	> 1.02	0.988	> 2	0.988	> 20	0.891	> 16	0.959	> 2.5	0.92	> 5	0.984	> 10	0.97	> 20
MC116 (B-cell lymphoma, suspension)	0.999	> 5	0.962	2.4	0.961	9.29	0.878	5.18	0.912	6.54	0.139	0.00427	0.728	0.887	0.999	> 1.02	0.954	1.74	0.998	> 20	0.822	5.98	0.98	> 2.5	0.877	2.57	0.999	> 10	0.915	13
MC-CAR (haematopoietic neoplasm, suspension)	0.989	> 5	0.975	> 2.56	0.907	> 10	0.565	0.924	0.55	0.86	0.474	0.0275	0.825	2.06	0.989	> 1.02	0.355	0.0521	0.988	> 20	0.56	1.43	0.989	> 2.5	0.863	3.58	0.916	> 10	0.829	10.7
MDST8 (large intestine, adherent)	0.972	> 5	0.986	> 2.56	0.949	> 10	0.128	0.0419	0.855	8.03	0.856	0.408	0.949	> 4	0.986	> 1.02	0.898	> 2	0.975	> 20	0.972	> 16	0.98	> 2.5	0.943	> 5	0.976	> 10	0.83	12.4
ME-1 (acute myeloid leukaemia, suspension)	0.984	> 5	0.989	> 2.56	0.987	> 10	0.729	2.95	0.898	> 10.2	0.832	0.36	0.969	> 4	0.986	> 1.02	0.955	> 2	0.978	> 20	0.885	> 16	0.989	> 2.5	0.983	> 5	0.976	> 10	0.871	> 20
MEG-01 (chronic myeloid leukaemia, suspension)	0.985	> 5	0.945	> 2.56	0.874	8.72	0.553	0.863	0.849	7.01	0.314	0.01	0.936	> 4	0.98	> 1.02	0.72	0.503	0.928	> 20	0.569	1.53	0.986	> 2.5	0.902	> 5	0.971	> 10	0.927	> 20
MFH-ino (soft tissue, adherent)	0.975	> 5	0.968	> 2.56	0.98	> 10	0.571	1.01	0.792	5.54	0.233	0.00459	0.913	> 4	0.983	> 1.02	0.35	0.0445	0.983	> 20	0.91	> 16	0.636	0.398	0.829	3.88	0.983	> 10	0.932	> 20
MFM-223 (breast, adherent)	0.989	> 5	0.986	> 2.56	0.978	> 10	0.686	2.06	0.794	4.64	0.959	> 0.512	0.962	> 4	0.986	> 1.02	0.788	0.867	0.988	> 20	0.862	13.5	0.985	> 2.5	0.719	1.29	0.979	> 10	0.968	> 20

A lower IC50 marks a more sensitive line; a fit beyond the top or the lowest dose is shown as a bound at that dose. AUC sums up the same curve from the lowest dose to the 256-fold higher top dose: 1 means no effect, lower means more sensitive. For part of these data: Any top dose called inferred was calculated from the reported fits. For part of these data: Where an entry number is given, a second screen of the drug exists; the two often differ.
